Measurements as given in PubChem BioAssay AID1030 (National Center for Advancing Translational Sciences (NCATS), 2008).
“And” between values parts separate entries of the source, which are not always exact repeats. Identical values can stand only once. The campaign covered roughly 220,000 compounds. About 16,000 (7.3%) were called active. Inconclusive means that the source gave no clear call. Such entries were picked first, then a sample of the others. The call rests on the fitted dose curve; in most records, active means well fitted inhibition curve with a large enough effect (not every such curve was filed as active); inconclusive means small, poorly fitted or top-dose-only effect, or another doubt; inactive means no such curve, though single readings can be large or run the other way. No potency is given beside an inconclusive call; the fits are too rough. The source holds several records for some structures; these can differ, active in one and inactive in another.

Biological target: Aldehyde dehydrogenase 1A1 (Homo sapiens) (UniProt P00352)
Sequence of UniProt P00352 (P00352 whole entry, looked up): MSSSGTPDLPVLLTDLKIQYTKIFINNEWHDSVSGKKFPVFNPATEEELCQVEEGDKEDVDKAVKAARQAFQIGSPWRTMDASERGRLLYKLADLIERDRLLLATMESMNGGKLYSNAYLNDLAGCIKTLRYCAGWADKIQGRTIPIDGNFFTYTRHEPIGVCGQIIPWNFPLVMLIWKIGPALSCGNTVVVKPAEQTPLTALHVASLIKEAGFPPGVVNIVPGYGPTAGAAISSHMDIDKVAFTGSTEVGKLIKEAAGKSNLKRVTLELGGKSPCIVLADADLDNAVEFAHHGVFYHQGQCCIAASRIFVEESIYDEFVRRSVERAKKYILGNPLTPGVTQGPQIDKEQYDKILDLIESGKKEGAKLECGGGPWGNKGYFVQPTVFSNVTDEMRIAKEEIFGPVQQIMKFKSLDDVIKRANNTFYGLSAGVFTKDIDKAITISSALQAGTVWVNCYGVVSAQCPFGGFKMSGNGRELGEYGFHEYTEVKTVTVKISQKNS
Experiment: qHTS Assay for Inhibitors of Aldehyde Dehydrogenase 1 (ALDH1A1)
Settings: Purified ALDH1A1, NADH fluorescence, propionaldehyde substrate; series mostly up to 75.3 µM
Potency means the concentration at half of the fitted maximal effect; tags describe the fitted curve by direction and shape.

Structure (SMILES) | Potency
Cc1nc(S/C(=C/c2ccc(-c3ccc(Cl)cc3)o2)C(=O)O)n[nH]1 | inactive
N#Cc1ccc(-c2cccnc2)nc1SCc1ccc(Cl)cc1Cl | inconclusive [inhibitor, single point]
C#C[C@@]1(O)CC[C@@H]2[C@@H]3CCC4=C(CCC(=O)C4)[C@H]3CC[C@]21C | inactive
CCOC(=O)C1CCN(Cc2ccc(O)c(OC)c2)CC1 | inconclusive [inhibitor, single point]
O=C(CSc1nc2[nH]ncc2c(=O)[nH]1)NCc1ccc(F)cc1 | inactive
Cc1cc(C)n(-c2nncn2NC(=O)c2ccc(Cl)cc2O)n1 | inconclusive [inhibitor, partial curve]
O=C(Nc1ccc2oc(=O)ccc2c1)c1ccc(-c2cccc([N+](=O)[O-])c2)o1 | active: 7.94 µM
CSc1cccc(NC(=S)N2CCCN(Cc3ccc(F)cc3)C2)c1 | inactive
CC1(C)NC(=O)N(CCOCCOc2ccccc2-c2ccccc2)C1=O | inconclusive [inhibitor, partial curve, poor fit]
Cc1ccc(S(=O)(=O)c2c(N)n(NC(=O)C3CC3)c3nc4ccccc4nc23)cc1 | inconclusive [inhibitor, partial curve]
O=c1cc(-c2ccc(F)cc2F)[nH]c2ccc(F)cc12 | inactive
Cn1c(-c2ccc[nH]c2=O)nc2cc(Cl)ccc21 | inconclusive [inhibitor, partial curve]
COc1ccc(Cc2n[nH]c(=S)n2N)cc1OC | active: 10 µM
O=C(/C=C/c1ccccn1)c1cc(Br)ccc1O | active: 22.4 µM
CCOc1ccc2cc(C#N)c(SCC(=O)N3CCOCC3)nc2c1 | active: 3.55 µM
O=c1sc(N2CCN(c3ccccc3F)CC2)nc2ccsc12 | inconclusive [inhibitor, single point]
OC(CN1CCN(c2ccccn2)CC1)Cn1c2ccc(Cl)cc2c2cc(Cl)ccc21 (stereo not given) | inconclusive [inhibitor, partial curve]
Cc1cc2ncc(C(=O)Nc3ccsc3C(=O)O)c(C)n2n1 | active: 14.1 µM
COC(=O)C(C)Sc1ncnc2c1c(-c1ccccc1)cn2-c1ccc(OC)cc1 (stereo not given) | inconclusive [inhibitor, single point]
O=C(CSc1nnc(-c2cccnc2)o1)c1cc2ccccc2oc1=O | inconclusive [inhibitor, partial curve]
Cc1cc(N=Cc2c(O)ccc3cc(Br)ccc23)no1 | active: 1.78 µM
COc1cc(O)oc1C=Nc1ccc(Cl)cc1Cl | active: 14.1 µM
COc1ccc(C2NC(c3ccc(OC)cc3OC)C(C)C(=O)C2C)c(OC)c1 (stereo not given) | inconclusive [inhibitor, single point]
O=C(CNC1CCCC1)Nc1cc(Cl)ccc1[N+](=O)[O-] | inconclusive [inhibitor, partial curve]
CN(c1ccccc1)S(=O)(=O)c1ccc(NC(=O)c2cccs2)cc1 | inactive

Structure (SMILES) | Potency
CC(OC(=O)c1ccc2c(=O)n3c(nc2c1)CCCCC3)C(N)=O (stereo not given) | inactive
c1ccc(CCNc2nc(-c3cccnc3)cs2)cc1 | inconclusive [inhibitor, single point]
CCOC(=O)C1=C(O)/C(=C\c2cc(C)n(-c3ccc(F)cc3)c2C)N=C1C | inactive
COCCn1c(=O)c(-c2ccccc2)nc2cnc(Oc3ccccc3)nc21 | inconclusive [inhibitor, single point]
O=C1CCCC2=C1C(c1ccc(Cl)cc1)N1C(=O)CCSC1=N2 (stereo not given) | inactive
COc1ccc(CCNc2cc(C)nc3c(-c4ccc(Cl)cc4)cnn23)cc1OC | inconclusive [inhibitor, partial curve]
COc1ccc(-c2nc3c(c4nnc(SC(C)C(=O)Nc5ccccc5)n24)COC(C)(C)C3)cc1 (stereo not given) | inconclusive [inhibitor, single point]
O=C(NCCc1c[nH]c2ccccc12)c1cncc(Br)c1 | inconclusive [inhibitor, single point]
O=C(Cn1nnc(-c2ccccc2Cl)n1)N/N=C/c1ccc(-c2cccc(Cl)c2)o1 | inconclusive [inhibitor, partial curve]
CNc1ncncc1-c1ccccc1C | inactive
O=C1C=C(Nc2ccccc2O)c2ccccc2C1=O | inactive
O=C(CCN1C(=O)CSC1=O)Nc1ccc(Br)cc1 | inactive
O=C(O)CSc1cccc[n+]1[O-] | inactive
Cc1ccc(NC(=O)/C=C\C(=O)NCC(=O)O)cc1C | active: 5.01 µM
COc1ccc(-c2ccc(C#N)c(SCC(=O)OCc3ccccc3)n2)cc1OC | inconclusive [inhibitor, partial curve]
Cc1c(-c2ccc(F)cc2)nc(N)c(C#N)c1-c1ccco1 | inconclusive [inhibitor, partial curve]
O=C(CN1CCc2[nH]c3ccccc3c2C1)N1CCCCC1 | inconclusive [inhibitor, partial curve]
Cc1nc([N+](=O)[O-])c(Br)n1CC(=O)c1ccc2ccccc2c1 | inconclusive [inhibitor, single point]
N#Cc1cc(-c2ccccc2)cnc1Sc1ccc(Cl)cc1 | inconclusive [inhibitor, single point]
Cc1ccnc(SCC(=O)c2cccc([N+](=O)[O-])c2)n1 | active: 31.6 µM
CCc1nnc(NC(=O)C2CCCCN2S(=O)(=O)c2ccccc2)s1 (stereo not given) | inactive
CCN(CC)c1ccc(/C=N/N2CCOCC2)cc1 | active: 22.4 µM
CCN(CC)S(=O)(=O)c1ccc(NC(=O)CSc2ncnc3ccccc23)cc1 | inactive
CN(C)C(=O)COc1ccc2cc(-c3ccccc3)c(=O)oc2c1 | inconclusive [inhibitor, partial curve]
C/C(=N/NC(=O)CNC(=O)c1ccc2c(c1)OCO2)c1ccc2c(c1)CCCC2 | inconclusive [inhibitor, single point]

Structure (SMILES) | Potency
CCCCc1c(C)c(C#N)c2[nH]c3ccccc3n2c1=O | inconclusive [inhibitor, full curve]
COc1cc(C(=S)N2CCCCC2)ccc1O | inconclusive [inhibitor, single point]
CN(C)CCOc1ccccc1-c1ccccc1 | inconclusive [inhibitor, single point]
N=C1N(/N=C/c2ccccc2)C(=Nc2ccccc2)C(=S)N1c1ccccc1 | inconclusive [inhibitor, single point]
Oc1ccc(CNc2ccc(F)cc2)c2cccnc12 | active: 8.91 µM
N#Cc1nc(-c2cccs2)oc1NCCc1ccccc1 | inconclusive [inhibitor, partial curve]
CCOc1ccccc1NC(=O)CSc1nnc(-c2cnccn2)n1CC | inconclusive [inhibitor, single point]
CCOC(=O)C1(CCOC)CCN(Cc2nc(C(C)C)cs2)CC1 | inactive
CC(=O)C1=C(O)C(=O)N(c2nnn(C)n2)C1c1cccs1 (stereo not given) | inconclusive [inhibitor, single point]
CCC(c1nnnn1CC1CCCO1)N(CCN1CCOCC1)Cc1cc2cc(C)ccc2[nH]c1=O (stereo not given) | inconclusive [inhibitor, partial curve]
Cc1ccccc1N1CC(C(=O)Nc2nnc(SCC(=O)Nc3nccs3)s2)CC1=O (stereo not given) | active: 15.8 µM
COc1ccc(C2C(C#N)=C(C)NC3=C2C(=O)CC(C)(C)C3)cc1 (stereo not given) | inconclusive [inhibitor, partial curve]
Cc1ncc([N+](=O)[O-])n1CCO | inactive and active: 7.94 µM
CC1CCCC(NC(=O)c2cn(C)c3ccc(S(=O)(=O)N4CCCC4)cc3c2=O)C1C (stereo not given) | active: 5.62 µM
CCOC(=O)N1CCN(C(=O)COc2ccc3c(c2)C(=O)CC2(CCN(C(C)=O)CC2)O3)CC1 | inconclusive [inhibitor, partial curve]
c1ccc(Cn2nnc3c(N4CCc5ccccc54)ncnc32)cc1 | inconclusive [inhibitor, partial curve]
O=C(O)c1ccc(CSc2nnc(COc3ccccc3)o2)cc1 | inactive
O=C(COC(=O)CCc1ccc(S(=O)(=O)N2CCOCC2)cc1)Nc1cccc(Cl)c1 | inconclusive [inhibitor, partial curve]
CSc1nnc(NC(=O)c2ccc(S(=O)(=O)N(C)C)cc2)s1 | inconclusive [inhibitor, single point]
CC1(C(=O)OCC(=O)c2c[nH]c3ccccc23)CC1(Cl)Cl (stereo not given) | inactive
COc1ccc(-c2nn(-c3ccccc3)cc2/C=N/Nc2cccc(C(=O)O)c2)cc1 | inconclusive [inhibitor, single point]
Cn1c(SCC(=O)N2c3ccccc3Sc3ccc(Cl)cc32)nnc1-c1ccco1 | inconclusive [inhibitor, single point]
COc1ccc(CNC(=O)c2cc(COc3c(F)cccc3F)on2)cc1OC | inconclusive [inhibitor, single point]
C=CCN1C(=O)C2(NNc3ccccc3O2)c2ccccc21 (stereo not given) | active: 1.58 µM
C=CCn1c(SCC(=O)Nc2ccc(N(C)C)cc2)nnc1-c1cccc(C)c1 | inconclusive [inhibitor, single point]
